These are yes or no findings as the source states them, for the method shown. Some binding calls cover weakened binding; strength is not graded here.

For experiment [1], the target named is h/m apical domain chimera (human apical domain grafted on mouse TfR1 ectodomain) (human/mouse chimera). As to the kind of experiment: indirect ELISA on plate coated with 1 µg/ml h/m apical domain chimera; dilution series of IgG, HRP anti-mouse IgG, OD450; x axis printed 'TfR (ng/ml)' [C].
The target in experiment [2] is cynomolgus TfR1 (recombinant, construct not stated) (cynomolgus). As to the kind of experiment: BLI, IgG captured from hybridoma supernatant, 250 nM cTfR1 in solution.
In experiment [3] the target is h/m protease-like domain chimera (human protease like domain grafted on mouse TfR1 ectodomain) (human/mouse chimera). As to the kind of experiment: indirect ELISA, coated antigen 1 µg/ml, mouse IgG dilution series.
The target of experiment [4] is cynomolgus TfR1 (recombinant, construct not stated) (cynomolgus). As to the kind of experiment: ELISA, hybridoma supernatant. On the technique in general: In an ELISA, binding on a coated surface is turned into a signal by an enzyme label.
Experiment [5] has as its target hTfR1 (recombinant, construct not stated) (human) (UniProt P02786). Put plainly: BLI, IgG captured from hybridoma supernatant, 250 nM hTfR1 in solution. (In BLI a coated tip is dipped into the sample, and binding shifts an interference pattern.)
For experiment [6], the target named is cynomolgus TfR1 (recombinant, construct not stated) (cynomolgus). As to the kind of experiment: BLI, IgG captured from hybridoma supernatant, 250 nM cTfR1.
Experiment [7] deals with hTfR1 (recombinant, construct not stated) (human) (UniProt P02786). As to the kind of experiment: BLI, IgG captured from hybridoma supernatant, 250 nM hTfR1.
Experiment [8] deals with cynomolgus TfR1 (recombinant, construct not stated) (cynomolgus). As to the kind of experiment: BLI (Octet): mouse IgG captured from crude hybridoma supernatant on anti-mouse capture sensors; 250 nM cTfR1 in solution, 120 s association, 90 s dissociation [panel A].
For experiment [9], the target named is h/m protease-like domain chimera (human protease like domain grafted on mouse TfR1 ectodomain) (human/mouse chimera). As to the kind of experiment: indirect ELISA on plate coated with 1 µg/ml h/m protease-like domain chimera; dilution series of IgG, HRP anti-mouse IgG, OD450; x axis printed 'TfR (ng/ml)' [D].
Experiment [10] has as its target h/m helical domain chimera (human helical domain grafted on mouse TfR1 ectodomain) (human/mouse chimera). Put plainly: indirect ELISA on plate coated with 1 µg/ml h/m helical domain chimera; dilution series of IgG, HRP anti-mouse IgG, OD450; x axis printed 'TfR (ng/ml)' [E].
In experiment [11] the target is hTfR1 (recombinant, construct not stated) (human) (UniProt P02786). As to the kind of experiment: BLI epitope binning (Octet): biotinylated hTfR1 on streptavidin sensors, 200 nM antibody in solution.
The target of experiment [12] is h/m protease-like domain chimera (human protease like domain grafted on mouse TfR1 ectodomain) (human/mouse chimera). Put plainly: indirect ELISA, coated antigen.
The target in experiment [13] is h/m helical domain chimera (human helical domain grafted on mouse TfR1 ectodomain) (human/mouse chimera). Put plainly: indirect ELISA, coated antigen 1 µg/ml.
Experiment [14] deals with h/m apical domain chimera (human apical domain grafted on mouse TfR1 ectodomain) (human/mouse chimera). As to the kind of experiment: indirect ELISA, coated antigen 1 µg/ml.
Experiment [15] has as its target hTfR1 (recombinant, construct not stated) (human) (UniProt P02786). As to the kind of experiment: BLI epitope binning, 200 nM; competitor 15G11-1 pre-bound.
The target is the same in experiment [16]. As to the kind of experiment: BLI (Octet): mouse IgG captured from crude hybridoma supernatant on anti-mouse capture sensors; 250 nM hTfR1 in solution, 120 s association, 90 s dissociation [panel A].
The target is the same in experiment [17]. Put plainly: BLI (Octet): mouse IgG captured from crude hybridoma supernatant on anti-mouse capture sensors; 250 nM hTfR1 in solution, 120 s association, 90 s dissociation [panel C].
Experiment [18] concerns the target cynomolgus TfR1 (recombinant, construct not stated) (cynomolgus). As to the kind of experiment: BLI (Octet): mouse IgG captured from crude hybridoma supernatant on anti-mouse capture sensors; 250 nM cTfR1 in solution, 120 s association, 90 s dissociation [panel C].
Experiment [19] shares this target. As to the kind of experiment: BLI (Octet): cTfR1 held on streptavidin sensors by biotinylated human holo-transferrin; 15 nM Fab in solution, 120 s association, 300 s dissociation [middle column, lower panel (cTfR1].
The target is the same in experiment [20]. Put plainly: BLI, cTfR1 captured on biotinylated holo-transferrin, Fab 15 nM.
Experiment [21] has the same target. Put plainly: BLI (Octet): mouse IgG captured from crude hybridoma supernatant on anti-mouse capture sensors; 250 nM cTfR1 in solution, 120 s association, 90 s dissociation [panel B].

B1: 24B4 (antibody, V domains shown)
VH: EVQLQQFGAELVKPGTSVKISCKASGYTFTDYNMDWVKQGHGKGLEWIGDINPNYDTTSYSQKFKGKATLTVDKSSSTAYMELRSLTSEDTAVYYCARSEAGNYYWYFDVWGAGTTVTVSS
VL: DIVMSQSPSSLAVSVGEKVTMSCKSSQSLLYSSNRKNYLAWYRQKPGQSPKLLIYWASTRESGVPDRFTGSGSGTDFTLTISSVKAEDLAVYSCQQYYNYPYTFGGGTKLEIK
On to B1, for which the binding result in experiment [1] is reported as “no binding (tested: about 650 ng/ml)”; in [2] it was “binds”; in [3] it was “binds”; in experiment [4], “binds”; in experiment [5] it was “binds”; in experiment [6], “binds”. For the same molecule, the binding entry is on record as “binds” in experiment [7]; “binds” in [8]; “binds” in experiment [9]; “no binding (tested: about 650 ng/ml)” in [10]; “binds” in experiment [11]; “binds” in experiment [12]. The binding entry in experiment [13] is recorded as “no binding”; in experiment [14] it was “no binding”; in experiment [15], “binds”; in experiment [16] it was “binds”.

B2: 37D10 (antibody, IgG2a, V domains shown)
VH: QVQLQQSGAELVRPGTSVKISCKASGYAFTNYWLGWVKQRPGHGLEWIGDIFPGSDNTYYNEKFKGKATLTADKSSSTAYMQLSSLASEDSAVYFCARSGNFYAMDYWGQGTSVTVSS
VL: ENVLTQSPAIMSASPGEKVTMTCSASSSVNYMNWYQQKSSTFPKLWIYDTSKLASGVPGRFSGSGSGKFYSLTISSMEAEDVATYYCFQGSGYPFTFGSGTKLEIK
For the molecule B2, the binding entry in experiment [1] is “no binding (tested: about 650 ng/ml)”; in [2], “binds”; in experiment [3] it was “binds”; in experiment [4], “binds”; in [5] it was “binds”; in experiment [6], “binds”. Further, the binding result in experiment [7] is recorded as “binds”; in experiment [9] it was “binds”; in experiment [17], “binds”; in experiment [10], “no binding (tested: about 650 ng/ml)”; in experiment [18], “binds”; in experiment [12], “binds”. In addition, the binding entry in experiment [13] and in experiment [14] was “no binding” each time.

B3: 26D3-Fab (Fab, V domains shown)
VH: EVQLQQFGVELVKPGASVKISCKASGYIFTDYNMDWVKQSHGKSLEWIGDINPDYDTTSYNEKFKGKATLTVDKSSSTAYMELRSLTSEDTAVYYCARGGYSGSSYYHPMDYWGQGTSVTVSS
VL: DIVMSQSPSSLAVSVGEKITMSCKSSQSLLYSTNQKNYLAWYQQKPGQSPELLIYWASTRESGVPDRFTGSGSGTDFTLTISNVRAEDLAVYYCQQYFIYPRTFGGGTKLEIK
Consider B3, for which the binding result in [19] and in [20] was “binds” throughout.

B4: 26D3 (antibody, V domains shown)
VH: EVQLQQFGVELVKPGASVKISCKASGYIFTDYNMDWVKQSHGKSLEWIGDINPDYDTTSYNEKFKGKATLTVDKSSSTAYMELRSLTSEDTAVYYCARGGYSGSSYYHPMDYWGQGTSVTVSS
VL: DIVMSQSPSSLAVSVGEKITMSCKSSQSLLYSTNQKNYLAWYQQKPGQSPELLIYWASTRESGVPDRFTGSGSGTDFTLTISNVRAEDLAVYYCQQYFIYPRTFGGGTKLEIK
B4: the binding entry is reported as “no binding (tested: about 650 ng/ml)” in [1]; “binds” in experiment [2]; “binds” in [3]; “binds” in experiment [4]; “binds” in [6]; “binds” in experiment [9]. For the same molecule, the binding result is recorded as “binds” in experiment [21], “binds” in experiment [12] and “no binding” in experiment [14].
